# Measured values as given in PubChem BioAssay AID686979 (National Center for Advancing Translational Sciences (NCATS), 2013).
# Out of some 420,000 compounds screened, about 50,000 (12%) were called active. Inconclusive means that the source gave no clear call. Such entries were picked first, then a sample of the others. The call rests on the fitted dose curve; in most records, active means well fitted inhibition curve with a large enough effect; inconclusive means small, poorly fitted or top-dose-only effect; inactive means flat fitted curve, though single readings scatter. Potencies of inconclusive entries are left out as doubtful fits.
# Test: qHTS for Inhibitors of human tyrosyl-DNA phosphodiesterase 1 (TDP1): qHTS in cells in presence of CPT; further: nearly all actives have a fitted effect of over 55% in size
# Details: chicken DT40 Tdp1-/-;hTDP1 cells + 20 nM CPT, ATP luminescence, 48 h; activity change, negative = growth inhibition: at 46.2 µM (top of the series) unless noted
# Method in brief: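 Cell growth measured by CellTiter-Glo luminescence after a minimum 48 h, 37 C compound exposure with 20 nM CPT in Tdp1-knockout DT40 cells stably expressing hTDP1, seeded 400/well; qHTS titration format.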
# On the % scale 0 is the no-effect control and ±100 the full control effect; potency means the concentration at half of the fitted maximal effect; tags describe the fitted curve by direction and shape.
SMILES,Potency,"activity change, negative = growth inhibition"
COc1ccc(C(=O)NCCc2cc3ccc(C)c(C)c3[nH]c2=O)cc1OC,"inconclusive [inhibitor, single point]",
COc1ccc(C2=NN(C(=O)CSc3nc(=O)n4ccc(C)cc4n3)C(c3ccc(C)cc3)C2)cc1 (configuration not stated),"inconclusive [inhibitor, partial curve, poor fit]",
C[C@@H]1CN([C@H](C)CO)C(=O)c2cc(NC(=O)C3CCCCC3)ccc2O[C@@H]1CN(C)Cc1ccc(C(F)(F)F)cc1,"inconclusive [inhibitor, single point]",
COc1ccc(-c2nc3ccccn3c2Cl)cc1,"inconclusive [inhibitor, single point]",
COC/C=C/C1=CC2=CC(=O)C(C)(OC(=O)c3cnc4ccccc4n3)C(=O)C2=CN1Cc1ccccc1 (configuration not stated),"inconclusive [inhibitor, single point]",
CCOC(=O)[C@H]1[C@H]2COc3ccc(Cl)cc3[C@@H]2N2C(=O)c3ccc(C)cc3NC(=O)[C@@]12C,"inconclusive [inhibitor, partial curve, poor fit]",
COc1ccc([N+](=O)[O-])cc1NCC(=O)Nc1cccc(S(=O)(=O)N2CCCC2)c1,"inconclusive [inhibitor, partial curve, poor fit]",
CC(C)NC(=O)c1onc(CSc2cccc(Cl)c2)c1C(=O)O,,inactive: -1.22%
CCOC(=O)c1ccc(NC(=O)Cn2c(C)nc3c(sc(=S)n3CC)c2=O)cc1,"inconclusive [inhibitor, single point]",
Cc1csc2nc(-c3cccc(NC(=O)c4ccc(S(N)(=O)=O)cc4)c3)cn12,"inconclusive [inhibitor, single point]",
COc1ccc(C(=O)Nc2cccc(-c3ccc(N4CCOCC4)nn3)c2)cc1,"inconclusive [inhibitor, single point]",
Cc1cccc(NC(=O)C2CCN(c3ncnc4c3nc3n4CCCCC3)CC2)n1,"inconclusive [inhibitor, single point]",
COc1ccc(-c2nc3cc(NC(=O)COc4ccc(F)cc4)ccc3o2)cc1,"inconclusive [inhibitor, partial curve]",
O=S(=O)(Nc1cccc(-c2cn3cccnc3n2)c1)c1ccc(-c2ccccc2)cc1,"inconclusive [inhibitor, single point]",
O=C(CC1(O)C(=O)N(Cc2ccccc2)c2ccccc21)c1ccncc1 (configuration not stated),active: 3.66 µM,
NC(=S)NNC(=O)C12CC3CC(CC(C3)C1)C2,,inactive: -0.251%
COc1ccc(OC)c(CNC(=O)c2cc(=O)[nH]c3ccc(S(=O)(=O)N4CCCCC4C)cc23)c1 (configuration not stated),"inconclusive [inhibitor, single point]",
C/C(=N\N=C(/N)SC1CC(=O)N(c2ccc(Cl)c(Cl)c2)C1=O)c1cccs1 (configuration not stated),"inconclusive [inhibitor, single point]",
CCN(N=O)c1ccc(/C=C/c2ccnc3ccccc23)cc1,active: 6.31 µM,
Cc1cc(/C=N/NC(=O)C(=O)NCc2ccccn2)c(C)n1-c1cccc(Br)c1,"inconclusive [inhibitor, partial curve]",
Cc1ccccc1C[n+]1cccc2ccccc21,"inconclusive [inhibitor, single point]",

SMILES,Potency,"activity change, negative = growth inhibition"
Cc1ccc(NC(=S)/C(=C(\[O-])c2ccc(F)cc2)[n+]2ccccc2)cc1,,inactive: -3.01%
COc1ccc(CCN2CC(C(=O)Nc3nccs3)CC2=O)cc1OC (configuration not stated),,inactive: -14.5%
CCCC(=Nc1ccccc1OC)C1=C(O)CC(c2ccccc2)CC1=O (configuration not stated),"inconclusive [inhibitor, single point]",
N#Cc1ccccc1OCC(=O)Nc1nc(-c2ccccn2)cs1,active: 2.91 µM,
C[C@@]12C(C[C@H](O)[C@@]34C[C@@H](CCC13)[C@@H](CO)C4=O)[C@](C)(C(=O)O)CC[C@@H]2O (some centres not stated),"inconclusive [inhibitor, single point]",
CN(Cc1nc2ccccc2s1)C(=O)c1ccc(F)cc1,,inactive: -8.72%
CC1(C)OC(=O)C2=C(C[C@@H](C3CCCCC3)O[C@@H]2c2ccc(F)cc2)O1,"inconclusive [inhibitor, single point]",
CCN(CC)CCNC(=S)Nc1ccc2nc(N3CCN(CC)CC3)cc(C)c2c1,"inconclusive [inhibitor, single point]",
Cc1ccc(OCC(=O)N(Cc2nnc(-c3ccccc3Cl)o2)C2CC2)cc1C,"inconclusive [inhibitor, single point]",
CCC(=O)Nc1ccc(S(=O)(=O)NCc2cccn2Cc2cccc(C)c2)cc1,active: 20.6 µM,
Cc1ccc(NC(=O)CSc2ncccc2C(=O)Oc2cccc([N+](=O)[O-])c2)cc1Cl,"inconclusive [inhibitor, single point]",
Cc1cc(C)c(NC(=O)CS(=O)CC(=O)Nc2ccc(N3CCOCC3)cc2)c(C)c1 (configuration not stated),,inactive: 1.68%
O=C(CCCCCCN1C(=O)c2ccccc2C1=O)N1CCC(c2ccccc2)C1 (configuration not stated),"inconclusive [inhibitor, single point]",
Cc1sc(NC(=O)c2ccc(OCC(C)C)cc2)c(C(N)=O)c1-c1ccc(Cl)cc1Cl,active: 9.2 µM,
CC(C)CN1CCC(=O)N(CCSc2ccccc2)CC1,inactive,
FC(F)(F)c1ccccc1NC(=S)NC1CCN(Cc2ccccc2)CC1,"inconclusive [inhibitor, single point]",
COc1cc(-c2nc3cnccn3c2Nc2ccccc2)ccc1O,active: 23.1 µM,
CCc1ccccc1NC(=O)CSc1ncc2c(n1)-c1ccccc1N(C)S2(=O)=O,"inconclusive [inhibitor, single point]",
FC(F)(F)c1ccc(-c2nc3ccccc3s2)cc1,,inactive: -13.3%
O=C(CCCN1C(=O)C(c2ccccc2)Oc2cccnc21)Nc1ccccc1Br (configuration not stated),"inconclusive [inhibitor, single point]",
O=C(N/N=C/C(Cl)=C\c1ccccc1)c1ccco1,,inactive: -19.6%
